# Reference: the supplement of paper PMC10369915
# The list shows a part of the results. No stated cut-off is given here; in the data, active = 3.2 or more and inactive = the rest. The signal is at background level for most entries.
# Biological target: SHP2 C-SH2 domain E139D
# Assay: enrichment score (SH2-bound / input frequency) (ratio); bacterial display of known human phosphotyrosine sites (pTyr-Var adds point mutants) read by sequencing; higher = stronger binding; tyrosines were phosphorylated by kinases first
# Details: peptide library: pTyr-Var
# 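Further: displayed peptides selected on beads carrying the immobilized SH2 domain, with library peptides lacking any tyrosine serving as negative controls.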
row,Binder,enrichment score
1,EFISEHCGEII [EZH2_Y641_Y641H],inactive: 1.08
2,AESPEYVHMYT [FAM111A_Y511],inactive: 0.864
3,IEENGYNTYAS [FGF10_Y161],inactive: 0.592
4,VRFMADTDETF [F8_Y450_Y450D],inactive: 0.858
5,FASALYGQRRS [FGF11_Y162_R163G_YF],inactive: 0.229
6,KEDPEYKKKFR [FAM161A_Y278_E273K],inactive: 0.638
7,HRTLVYGGIFL [FBP1_Y259],inactive: 0.705
8,NNHGNYIVHLG [ETFDH_Y172_R175H],inactive: 0.91
9,VRFVDYVLFRS [FAM189B_Y361_S358F],inactive: 3.03
10,MFCASYDTKQE [F10_Y407_G406S],inactive: 0.914
11,PEPTGYSAELS [EZR_Y499_A494P],inactive: 0.612
12,PPSLSYLSFEG [EXOSC3_Y143_A139P],inactive: 0.761
13,MFRAGYDTKQE [F10_Y407_C404R],inactive: 1.04
14,KPYRVYCDMNT [FGB_Y269],inactive: 0.785
15,VNLVLYLSIAK [FBXO15_Y496],inactive: 0.846
16,LSSETYVKSYT [F5_Y2149_M2148T],inactive: 0.757
17,KRAIGHFSATS [FAM120A_Y327_Y327H_YF],inactive: 0.812
18,EFISEYCGEII [EZH2_Y641],inactive: 1.13
19,MNPPPYSQFLS [FGF23_Y154],inactive: 0.917

# Biological target: SHP2 C-SH2 domain wild-type
# Assay: as above
# Details: peptide library: pTyr-Var
row,Binder,enrichment score
1,EFISEHCGEII [EZH2_Y641_Y641H],inactive: 1.02
2,AESPEYVHMYT [FAM111A_Y511],inactive: 0.644
3,IEENGYNTYAS [FGF10_Y161],inactive: 0.53
4,VRFMADTDETF [F8_Y450_Y450D],inactive: 0.784
5,FASALYGQRRS [FGF11_Y162_R163G_YF],inactive: 0.271
6,KEDPEYKKKFR [FAM161A_Y278_E273K],inactive: 1.08
7,HRTLVYGGIFL [FBP1_Y259],inactive: 1.12
8,NNHGNYIVHLG [ETFDH_Y172_R175H],inactive: 0.956
9,VRFVDYVLFRS [FAM189B_Y361_S358F],inactive: 2.95
10,MFCASYDTKQE [F10_Y407_G406S],inactive: 0.983
11,PEPTGYSAELS [EZR_Y499_A494P],inactive: 0.575
12,PPSLSYLSFEG [EXOSC3_Y143_A139P],inactive: 0.631
13,MFRAGYDTKQE [F10_Y407_C404R],inactive: 0.829
14,KPYRVYCDMNT [FGB_Y269],inactive: 1.11
15,VNLVLYLSIAK [FBXO15_Y496],inactive: 1.03
16,LSSETYVKSYT [F5_Y2149_M2148T],inactive: 0.582
17,KRAIGHFSATS [FAM120A_Y327_Y327H_YF],inactive: 0.731
18,EFISEYCGEII [EZH2_Y641],inactive: 1.19
19,MNPPPYSQFLS [FGF23_Y154],inactive: 0.596

# Biological target: SHP2 N-SH2 domain L43F
# Assay: as above
# Details: peptide library: pTyr-Var
row,Binder,enrichment score
1,EFISEHCGEII [EZH2_Y641_Y641H],inactive: 1.25
2,AESPEYVHMYT [FAM111A_Y511],inactive: 0.728
3,IEENGYNTYAS [FGF10_Y161],inactive: 0.457
4,VRFMADTDETF [F8_Y450_Y450D],inactive: 0.839
5,FASALYGQRRS [FGF11_Y162_R163G_YF],inactive: 0.194
6,KEDPEYKKKFR [FAM161A_Y278_E273K],inactive: 0.782
7,HRTLVYGGIFL [FBP1_Y259],inactive: 1.39
8,NNHGNYIVHLG [ETFDH_Y172_R175H],inactive: 0.879
9,VRFVDYVLFRS [FAM189B_Y361_S358F],active: 3.3
10,MFCASYDTKQE [F10_Y407_G406S],inactive: 0.874
11,PEPTGYSAELS [EZR_Y499_A494P],inactive: 0.621
12,PPSLSYLSFEG [EXOSC3_Y143_A139P],inactive: 1.45
13,MFRAGYDTKQE [F10_Y407_C404R],inactive: 0.805
14,KPYRVYCDMNT [FGB_Y269],inactive: 0.839
15,VNLVLYLSIAK [FBXO15_Y496],inactive: 0.535
16,LSSETYVKSYT [F5_Y2149_M2148T],inactive: 1.03
17,KRAIGHFSATS [FAM120A_Y327_Y327H_YF],inactive: 0.668
18,EFISEYCGEII [EZH2_Y641],inactive: 1.05
19,MNPPPYSQFLS [FGF23_Y154],inactive: 1.02

# Biological target: SHP2 N-SH2 domain T42A
# Assay: as above
# Details: peptide library: pTyr-Var
row,Binder,enrichment score
1,EFISEHCGEII [EZH2_Y641_Y641H],inactive: 0.827
2,AESPEYVHMYT [FAM111A_Y511],inactive: 0.638
3,IEENGYNTYAS [FGF10_Y161],inactive: 0.516
4,VRFMADTDETF [F8_Y450_Y450D],inactive: 0.795
5,FASALYGQRRS [FGF11_Y162_R163G_YF],inactive: 0.257
6,KEDPEYKKKFR [FAM161A_Y278_E273K],inactive: 0.644
7,HRTLVYGGIFL [FBP1_Y259],inactive: 0.765
8,NNHGNYIVHLG [ETFDH_Y172_R175H],inactive: 0.971
9,VRFVDYVLFRS [FAM189B_Y361_S358F],inactive: 2.56
10,MFCASYDTKQE [F10_Y407_G406S],inactive: 0.923
11,PEPTGYSAELS [EZR_Y499_A494P],inactive: 0.614
12,PPSLSYLSFEG [EXOSC3_Y143_A139P],inactive: 2.37
13,MFRAGYDTKQE [F10_Y407_C404R],inactive: 0.751
14,KPYRVYCDMNT [FGB_Y269],inactive: 0.793
15,VNLVLYLSIAK [FBXO15_Y496],inactive: 0.709
16,LSSETYVKSYT [F5_Y2149_M2148T],inactive: 0.493
17,KRAIGHFSATS [FAM120A_Y327_Y327H_YF],inactive: 0.622
18,EFISEYCGEII [EZH2_Y641],inactive: 0.673
19,MNPPPYSQFLS [FGF23_Y154],inactive: 0.821

# Biological target: SHP2 N-SH2 domain T52S
# Assay: as above
# Details: peptide library: pTyr-Var
row,Binder,enrichment score
1,EFISEHCGEII [EZH2_Y641_Y641H],inactive: 0.947
2,AESPEYVHMYT [FAM111A_Y511],inactive: 0.692
3,IEENGYNTYAS [FGF10_Y161],inactive: 0.439
4,VRFMADTDETF [F8_Y450_Y450D],inactive: 0.85
5,FASALYGQRRS [FGF11_Y162_R163G_YF],inactive: 0.269
6,KEDPEYKKKFR [FAM161A_Y278_E273K],inactive: 0.878
7,HRTLVYGGIFL [FBP1_Y259],inactive: 0.931
8,NNHGNYIVHLG [ETFDH_Y172_R175H],inactive: 1.1
9,VRFVDYVLFRS [FAM189B_Y361_S358F],inactive: 2.9
10,MFCASYDTKQE [F10_Y407_G406S],inactive: 0.801
11,PEPTGYSAELS [EZR_Y499_A494P],inactive: 0.551
12,PPSLSYLSFEG [EXOSC3_Y143_A139P],inactive: 1.59
13,MFRAGYDTKQE [F10_Y407_C404R],inactive: 0.783
14,KPYRVYCDMNT [FGB_Y269],inactive: 0.842
15,VNLVLYLSIAK [FBXO15_Y496],inactive: 0.628
16,LSSETYVKSYT [F5_Y2149_M2148T],inactive: 0.697
17,KRAIGHFSATS [FAM120A_Y327_Y327H_YF],inactive: 0.687
18,EFISEYCGEII [EZH2_Y641],inactive: 1.24
19,MNPPPYSQFLS [FGF23_Y154],inactive: 0.917

# Biological target: SHP2 N-SH2 domain wild-type
# Assay: as above
# Details: peptide library: pTyr-Var
row,Binder,enrichment score
1,EFISEHCGEII [EZH2_Y641_Y641H],inactive: 1.21
2,AESPEYVHMYT [FAM111A_Y511],inactive: 0.696
3,IEENGYNTYAS [FGF10_Y161],inactive: 0.674
4,VRFMADTDETF [F8_Y450_Y450D],inactive: 0.921
5,FASALYGQRRS [FGF11_Y162_R163G_YF],inactive: 0.263
6,KEDPEYKKKFR [FAM161A_Y278_E273K],inactive: 0.815
7,HRTLVYGGIFL [FBP1_Y259],inactive: 1.1
8,NNHGNYIVHLG [ETFDH_Y172_R175H],inactive: 1.04
9,VRFVDYVLFRS [FAM189B_Y361_S358F],inactive: 3.06
10,MFCASYDTKQE [F10_Y407_G406S],inactive: 0.87
11,PEPTGYSAELS [EZR_Y499_A494P],inactive: 0.56
12,PPSLSYLSFEG [EXOSC3_Y143_A139P],inactive: 0.934
13,MFRAGYDTKQE [F10_Y407_C404R],inactive: 0.967
14,KPYRVYCDMNT [FGB_Y269],inactive: 1.04
15,VNLVLYLSIAK [FBXO15_Y496],inactive: 1.57
16,LSSETYVKSYT [F5_Y2149_M2148T],inactive: 0.659
17,KRAIGHFSATS [FAM120A_Y327_Y327H_YF],inactive: 0.762
18,EFISEYCGEII [EZH2_Y641],inactive: 1.17
19,MNPPPYSQFLS [FGF23_Y154],inactive: 0.902
